Patent US9890133B2 (priority 2011, dated 2018)
In brackets after ≈: the same amount, converted by molar mass. Read-outs that look alike come from different tables or passages of the source.

What was measured:
[1] = test system: Coxsackie B3; assay: microbe, parasite or virus in culture; details: Enterovirus B, B3, read-out: Coxsackie B3 EC50
[2] = test system: Coxsackie B1; assay: organism not typed; details: read-out: Coxsackie B1 EC50
[3] = test system: Rhinovirus; assay: microbe, parasite or virus in culture; format: cell-based; details: Enterovirus
[4] = HRV14, read-out: Rhino HRV14 EC50
[5] = HRV21, read-out: Rhino HRV21 EC50
[6] = HRV71, read-out: Rhino HRV71 EC50

| SMILES | EC50 [1] [µg/mL] | EC50 [2] [µg/mL] | EC50 [3, 4] [µg/mL] | EC50 [3, 5] [µg/mL] | EC50 [3, 6] [µg/mL] |
| --- | --- | --- | --- | --- | --- |
| CC(=O)NC12C(=O)c3c(NC=O)cccc3C1(O)Oc1cc(C(C)C)ccc12 (stereo not shown) [Example 167, N-(1-Formamido-4b-hydroxy-7-isopropyl-10-oxo-9b,10-dihydro-4bH-benzo[d]-indeno[1,2-b]furan-9b-yl)acetamide] | 0.034 (≈ 0.0894 µM) | < 0.01 | 0.038 (≈ 0.0999 µM) | – | – |
| CC(C)c1ccc2c(c1)OC1(O)c3cccc(N)c3C(=O)C21NC(=O)c1ccc(C#N)cc1 (stereo not shown) [Example 170, N-(1-Amino-4b-hydroxy-7-isopropyl-10-oxo-9b,10-dihydro-4bH-indeno[1,2-b]benzofuran-9b-yl)-4-cyanobenzamide] | < 0.01 | < 0.01 | < 0.01 | < 1 | < 1 |
| CC(C)c1ccc2c(c1)OC1(O)c3cccc(N)c3C(=O)C21NC(=O)c1ccc2ccccc2c1 (stereo not shown) [Example 171, N-(1-Amino-4b-hydroxy-7-isopropyl-10-oxo-9b,10-dihydro-4bH-indeno[1,2-b]benzofuran-9b-yl)-2-naphthamide] | < 0.01 | < 0.01 | – | < 1 | < 1 |
| CC(C)c1ccc2c(c1)OC1(O)c3cccc(N)c3C(=O)C21NC(=O)c1ccc(-c2ccccc2)cc1 (stereo not shown) [Example 172] | 0.027 (≈ 0.055 µM) | < 0.01 | 0.0125 (≈ 0.0255 µM) | – | – |
| CC(C)c1ccc2c(c1)OC1(O)c3cccc(N)c3C(=O)C21NC(=O)C1CCCO1 (stereo not shown) [Example 174, N-(1-Amino-4b-hydroxy-7-isopropyl-10-oxo-9b,10-dihydro-4bH-benzo[d]indeno[1,2-b]furan-9b-yl)tetrahydrofurane-2-carboxamide] | < 0.01 | < 0.01 | < 0.01 | – | – |
| CC(C)c1ccc2c(c1)OC1(O)c3cccc(N)c3C(=O)C21NC(=O)C(F)(F)F (stereo not shown) [Example 175, N-(1-Amino-4b-hydroxy-7-isopropyl-10-oxo-9b,10-dihydro-4bH-indeno[1,2-b]benzofuran-9b-yl)-2,2,2-trifluoroacetamide] | < 0.01 | < 0.01 | < 0.01 | – | – |
| CC(C)c1ccc2c(c1)OC1(O)c3ccccc3C(=O)C21NC=O (stereo not shown) [Example 177, N-(4b-hydroxy-7-isopropyl-10-oxo-9b,10-dihydro-4bH-indeno[1,2-b]benzofuran-9b-yl)formamide] | < 0.01 | < 0.01 | < 0.01 | – | – |
| CC(C)c1ccc2c(c1)OC1(O)c3cccc(N)c3C(=O)C21NC(=O)Cc1ccccc1 (stereo not shown) [Example 179, N-(1-Amino-4b-hydroxy-7-isopropyl-10-oxo-9b,10-dihydro-4bH-indeno[1,2-b]benzofuran-9b-yl)-2-phenylacetamide] | < 0.01 | < 0.01 | < 0.01 | < 1 | – |
| CC(C)c1ccc2c(c1)OC1(O)c3cccc(N)c3C(=O)C21NC(=O)/C=C/c1ccc(Cl)c(Cl)c1 (stereo not shown) [Example 180] | < 0.01 | < 0.01 | 0.0114 (≈ 0.0224 µM) | – | – |
| CC(C)c1ccc2c(c1)OC1(O)c3cccc(N)c3C(=O)C21NC(=O)c1ccc(OCc2ccccc2)cc1 (stereo not shown) [Example 181, N-(1-Amino-4b-hydroxy-7-isopropyl-10-oxo-9b,10-dihydro-4bH-indeno[1,2-b]benzofuran-9b-yl)-4-(benzyloxy)benzamide] | < 0.01 | < 0.01 | 0.0124 (≈ 0.0238 µM) | – | – |
| CC(C)c1ccc2c(c1)OC1(O)c3cccc(N)c3C(=O)C21NC(=O)Cc1ccc(-c2ccccc2)cc1 (stereo not shown) [Example 182, 2-([1,1′-Biphenyl]-4-yl)-N-(1-amino-4b-hydroxy-7-isopropyl-10-oxo-9b,10-dihydro-4bH-indeno[1,2-b]benzofuran-9b-yl)acetamide] | 0.022 (≈ 0.0436 µM) | < 0.01 | 0.035 (≈ 0.0694 µM) | – | – |
| COc1ccccc1C(=O)NC12C(=O)c3c(N)cccc3C1(O)Oc1cc(C(C)C)ccc12 (stereo not shown) [Example 183, N-(1-Amino-4b-hydroxy-7-isopropyl-10-oxo-9b,10-dihydro-4bH-indeno[1,2-b]benzofuran-9b-yl)-2-methoxybenzamide] | < 0.01 | < 0.01 | < 0.01 | – | – |
| Cc1ccccc1C(=O)NC12C(=O)c3c(N)cccc3C1(O)Oc1cc(C(C)C)ccc12 (stereo not shown) [Example 186, N-(1-Amino-4b-hydroxy-7-isopropyl-10-oxo-9b,10-dihydro-4bH-benzo[d]indeno[1,2-b]furan-9b-yl)-2-methylbenzamide] | < 0.01 | < 0.01 | < 0.01 | – | – |
| Cc1cccc(C(=O)NC23C(=O)c4c(N)cccc4C2(O)Oc2cc(C(C)C)ccc23)c1 (stereo not shown) [Example 187, N-(1-Amino-4b-hydroxy-7-isopropyl-10-oxo-9b,10-dihydro-4bH-benzo[d]indeno[1,2-b]furan-9b-yl)-3-methylbenzamide] | < 0.01 | < 0.01 | < 0.01 | < 1 | < 1 |
| Cc1ccc(C(=O)NC23C(=O)c4c(N)cccc4C2(O)Oc2cc(C(C)C)ccc23)cc1 (stereo not shown) [Example 188, N-(1-Amino-4b-hydroxy-7-isopropyl-10-oxo-9b,10-dihydro-4bH-benzo[d]indeno[1,2-b]furan-9b-yl)-4-methylbenzamide] | < 0.01 | < 0.01 | < 0.01 | < 1 | < 1 |
| COC(=O)c1ccc(C(=O)NC23C(=O)c4c(N)cccc4C2(O)Oc2cc(C(C)C)ccc23)cc1 (stereo not shown) [Example 189, Methyl-4-(1-amino-4b-hydroxy-7-isopropyl-10-oxo-9b,10-dihydro-4bH-benzo[d]indeno[1,2-b]furan-9b-ylcarbamoyl)benzoate] | < 0.01 | < 0.01 | < 0.01 | < 1 | < 1 |
| CC(C)c1ccc2c(c1)OC1(O)c3cccc(N)c3C(=O)C21NC(=O)c1cccc(Cl)c1 (stereo not shown) [Example 190, N-(1-Amino-4b-hydroxy-7-isopropyl-10-oxo-9b,10-dihydro-4bH-indeno[1,2-b]benzofuran-9b-yl)-3-chlorobenzamide] | < 0.01 | < 0.01 | < 0.01 | < 1 | < 1 |
| Cc1cc(C)cc(C(=O)NC23C(=O)c4c(N)cccc4C2(O)Oc2cc(C(C)C)ccc23)c1 (stereo not shown) [Example 191, N-(1-Amino-4b-hydroxy-7-isopropyl-10-oxo-9b,10-dihydro-4bH-indeno[1,2-b]benzofuran-9b-yl)-3,5-dimethylbenzamide] | < 0.01 | < 0.01 | < 0.01 | – | < 1 |
| CC(C)c1ccc2c(c1)OC1(O)c3cccc(N)c3C(=O)C21NC(=O)CF (stereo not shown) [Example 193, N-(1-Amino-4b-hydroxy-7-isopropyl-10-oxo-9b,10-dihydro-4bH-benzo[d]indeno[1,2-b]furan-9b-yl)-2-fluoroacetamide] | < 0.01 | < 0.01 | < 0.01 | < 1 | – |
| CC(C)c1ccc2c(c1)OC1(O)c3cccc(N)c3C(=O)C21NC(=O)CCl (stereo not shown) [Example 194, N-(1-Amino-4b-hydroxy-7-isopropyl-10-oxo-9b,10-dihydro-4bH-benzo[d]indeno[1,2-b]furan-9b-yl)-2-chloroacetamide] | < 0.01 | < 0.01 | < 0.01 | – | – |
| CC(C)c1ccc2c(c1)OC1(O)c3cccc(N)c3C(=O)C21NC(=O)c1ccccn1 (stereo not shown) [Example 197, N-(1-Amino-4b-hydroxy-7-isopropyl-10-oxo-9b,10-dihydro-4bH-indeno[1,2-b]benzofuran-9b-yl)picolinamide] | < 0.01 | < 0.01 | < 0.01 | – | – |
| CC(C)c1ccc2c(c1)OC1(O)c3cccc(N)c3C(=O)C21NC(=O)c1cccnc1 (stereo not shown) [Example 198, N-(1-Amino-4b-hydroxy-7-isopropyl-10-oxo-9b,10-dihydro-4bH-indeno[1,2-b]benzofuran-9b-yl)nicotinamide] | < 0.01 | < 0.01 | < 0.01 | < 1 | < 1 |
| CC(C)c1ccc2c(c1)OC1(O)c3cccc(N)c3C(=O)C21NC(=O)c1ccncc1 (stereo not shown) [Example 199, N-(1-Amino-4b-hydroxy-7-isopropyl-10-oxo-9b,10-dihydro-4bH-indeno[1,2-b]benzofuran-9b-yl)isonicotinamide] | < 0.01 | < 0.01 | < 0.01 | < 1 | < 1 |
| CC(C)c1ccc2c(c1)OC1(O)c3cccc(N)c3C(=O)C21NC(=O)c1cnccn1 (stereo not shown) [Example 200, N-(1-Amino-4b-hydroxy-7-isopropyl-10-oxo-9b,10-dihydro-4bH-indeno[1,2-b]benzofuran-9b-yl) pyrazine-2-carboxamide] | < 0.01 | < 0.01 | < 0.01 | < 1 | < 1 |
| CC(C)c1ccc2c(c1)OC1(O)c3cccc(N)c3C(=O)C21NC(=O)c1ccco1 (stereo not shown) [Example 201, N-(1-Amino-4b-hydroxy-7-isopropyl-10-oxo-9b,10-dihydro-4bH-indeno[1,2-b]benzofuran-9b-yl)furane-2-carboxamide] | < 0.01 | < 0.01 | < 0.01 | < 1 | < 1 |
| CC(C)c1ccc2c(c1)OC1(O)c3cccc(N)c3C(=O)C21NC(=O)c1cccc2cccnc12 (stereo not shown) [Example 202, N-(1-Amino-4b-hydroxy-7-isopropyl-10-oxo-9b,10-dihydro-4bH-indeno[1,2-b]benzofuran-9b-yl)quinoline-8-carboxamide] | < 0.01 | < 0.01 | < 0.01 | – | – |
| CC(C)c1ccc2c(c1)OC1(O)c3cccc(N)c3C(=O)C21NC(=O)c1ccc2ncccc2c1 (stereo not shown) [Example 203] | < 0.01 | < 0.01 | < 0.01 | < 1 | < 1 |
| CC(C)c1ccc2c(c1)OC1(O)c3cccc(N)c3C(=O)C21NC(=O)c1cc2ccccc2o1 (stereo not shown) [Example 204, N-(1-Amino-4b-hydroxy-7-isopropyl-10-oxo-9b,10-dihydro-4bH-benzo[d]indeno[1,2-b]furan-9b-yl)benzofurane-2-carboxamide] | < 0.01 | < 0.01 | < 0.01 | – | < 1 |
